Reference: PubChem BioAssay AID1645882 (National Center for Advancing Translational Sciences (NCATS), 2021)
Out of some 16,000 compounds screened, about 120 (0.75%) were called active. Roughly 4% stayed inconclusive and do not appear here. The call rests on the fitted dose curve; in most records, active means well fitted inhibition curve with a large enough effect; inconclusive means small, poorly fitted or top-dose-only effect; inactive means no such curve, though single readings can be large or run the other way. The list shows a part of the results.

The compounds below were run against Rap guanine nucleotide exchange factor 3 (Homo sapiens) (UniProt O95398) (assay: Validation qHTS for antagonist of cAMP-regulated guanine nucleotide exchange factor 3 (EPAC1)). Conditions: EPAC1 Rap1B-BODIPY-GDP exchange, fluorescence; series mostly up to 150 µM; activity change, negative = inhibition: at the top concentration.
Chain of UniProt O95398 (O95398 whole entry, looked up): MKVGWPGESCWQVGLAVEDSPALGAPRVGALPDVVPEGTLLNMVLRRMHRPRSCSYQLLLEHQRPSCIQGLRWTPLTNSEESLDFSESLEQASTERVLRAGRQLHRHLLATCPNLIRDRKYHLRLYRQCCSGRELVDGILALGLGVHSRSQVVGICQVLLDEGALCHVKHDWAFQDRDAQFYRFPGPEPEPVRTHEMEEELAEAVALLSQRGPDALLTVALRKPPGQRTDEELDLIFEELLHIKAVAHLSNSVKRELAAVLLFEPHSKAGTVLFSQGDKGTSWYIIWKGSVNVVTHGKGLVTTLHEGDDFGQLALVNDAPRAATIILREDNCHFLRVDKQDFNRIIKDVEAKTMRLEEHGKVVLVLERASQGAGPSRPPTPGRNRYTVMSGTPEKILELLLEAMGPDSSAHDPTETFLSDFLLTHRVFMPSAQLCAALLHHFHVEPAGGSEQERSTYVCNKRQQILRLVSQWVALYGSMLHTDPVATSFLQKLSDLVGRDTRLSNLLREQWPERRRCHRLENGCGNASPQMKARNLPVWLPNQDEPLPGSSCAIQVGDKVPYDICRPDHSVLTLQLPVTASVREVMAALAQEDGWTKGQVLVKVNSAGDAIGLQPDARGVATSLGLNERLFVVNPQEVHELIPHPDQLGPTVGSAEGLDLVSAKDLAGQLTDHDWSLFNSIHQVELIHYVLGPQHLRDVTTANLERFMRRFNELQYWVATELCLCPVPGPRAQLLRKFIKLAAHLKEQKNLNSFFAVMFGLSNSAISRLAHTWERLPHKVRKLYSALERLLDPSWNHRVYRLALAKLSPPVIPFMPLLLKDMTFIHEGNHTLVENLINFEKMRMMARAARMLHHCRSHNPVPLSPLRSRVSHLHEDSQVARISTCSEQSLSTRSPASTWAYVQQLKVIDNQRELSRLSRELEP
Outline: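 Nucleotide exchange followed as fluorescence loss when BODIPY-GDP leaves Rap1B (480 nm excitation, 540 nm emission), read at 5 min intervals over 30 min. Reaction: 100 nM EPAC1, 250 nM RAP1B-BODIPY-GDP, 50 uM GDP; ATA and DMSO define normalization.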
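Further: plate controls were DMSO for no effect and ATA control for full effect; nearly all actives have a fitted effect of over 75% in size.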

Structure (SMILES)	activity change, negative = inhibition
NC(=S)NCCC[C@H](N)C(=O)O	inactive
COc1cccc(-c2cc(NCc3cccnc3)ncn2)c1	inactive: 11.5%
CCNc1ncc2nc(C)c(=O)n(Cc3cccc(OC)c3)c2n1	inactive: 21.6%
Cc1ccc2c(c1)CN(CCNC(=O)c1c(-c3ccccc3)noc1C)CC(C)O2 (stereo unspecified)	inactive: 21.7%
CC(C)NC(=O)N1CCCC2(CCN(C(=O)c3cccn3C)CC2)C1	inactive: 16.2%
CCc1nc2cc(C(=O)NCC3CCS(=O)(=O)C3)cc(NC(=O)c3ccccc3OC)c2n1C (stereo unspecified)	inactive: 28.3%
CC(C(=O)O)c1ccc2c(c1)[nH]c1ccc(Cl)cc12 (stereo unspecified)	inactive: 14.2%
O=C(c1cccc(Cn2cccn2)c1)N1CCC(n2c(C3CCCO3)nc3cc(C(F)(F)F)ccc32)CC1 (stereo unspecified)	inactive: 7.59%
CC1CC[C@@]2(OC1)OC1CC3C4CC[C@@H]5CC(O)CC[C@@]5(C)C4CC[C@]3(C)C1C2C (stereo partly specified)	inactive: 13.9%
CC(=O)OC(C)(C)C1Cc2cc3ccc(=O)oc3cc2O1 (stereo unspecified)	inactive: 9.85%
CC(=O)N1CCC2(CC1)CCN(c1ccncc1)CC2	inactive: 11.1%
O=C(C[n+]1csc2ccccc21)c1ccccc1	inactive: 0.469%
CCCCc1cc2ccccc2c(OCCN(C)C)n1	inactive: 4.28% [at 75.8 µM]
C/C=C(/CC[C@@H](C)[C@H]1CC[C@H]2C3=CC[C@H]4[C@H](C)[C@@H](O)CC[C@]4(C)[C@H]3CC[C@]12C)C(C)C	inactive: 16.2%
CO/N=C(\C(=O)N[C@@H]1C(=O)N2C(C(=O)O)=C(CSc3nnnn3C)CS[C@H]12)c1csc(N)n1	inactive: 24.9%
O=c1c(-c2cc(F)cc(F)c2)nc2cncnc2n1-c1ccccc1	inactive: 10.3%
CCC(C(=O)NC(=O)NC(C)=O)c1ccccc1 (stereo unspecified)	inactive: 23.6%
Cc1cccc(C)c1NC(=O)C(C)N (stereo unspecified)	inactive
Cc1noc(C)c1C(=O)N1CCC[C@@]2(CCN(C(c3ccccc3)c3ccccc3)C2)C1	inactive: -3.55%
O=C(O)C1CCCNC1 (stereo unspecified)	inactive
Cc1c(N(C)C)c(=O)n(-c2ccccc2)n1C	inactive: 14.3%
CN(C)C(=O)c1ccc(-c2cncnc2Nc2ccccc2)cc1	inactive: 6.8%
O=C(O)C(S)[C@@H](S)C(=O)O (stereo partly specified)	inactive: 7.81%
CCCCC[C@H](O)/C=C/C1=C(CCCCCCC(=O)O)C(=O)CC1	inactive: 19.9% [at 15.3 µM]
O=C(O)C[C@H]1c2cc(F)ccc2S(=O)(=O)N1C1CCCCC1	inactive: 12.1%
COc1cccc(-c2nccc(NC3CCNCC3)n2)c1	inactive: 8.74%

Structure (SMILES)	activity change, negative = inhibition
CCCc1c(-c2ccc(O)cc2)nn(-c2ccc(O)cc2)c1-c1ccc(O)cc1	inactive: 20.8% [at 75.8 µM]
Cc1ccc(CN2CCCOCCS2(=O)=O)cc1	inactive: -2.55%
CC(=O)c1ccc(F)c(-c2cc(C)cc3c2OC(CNC(=O)C2CCCCN2C)C3)c1 (stereo unspecified)	inactive: 3.64%
CS(=O)(=O)Nc1cccc(-c2ccc3ncnc(NC4CC4)c3c2)c1	inactive: 9.68%
NC(=O)c1ccc2[nH]ccc2c1	inactive: -1.73% [at 75.8 µM]
COc1cc(=O)n2c(c1C(=O)NCc1ccco1)CCN(Cc1cccc(C(F)(F)F)c1)CC2	inactive: 1.3%
CSc1nnc(CNC(=O)/C=C/c2ccccc2Cl)n1-c1ccc(F)cc1	inactive: -2.3%
COc1ccc(OC)c(CN2CCCC(n3cc(C(=O)N4CCCCC4)nn3)C2)c1 (stereo unspecified)	inactive: -2.37%
Brc1ccc(CN2CC[C@H]3C=CCc4cccc(c43)C2)cc1	inactive: 9.43%
CC1(C)OC2C(CO)OC(n3cnc4c(=O)[nH]c(N)nc43)C2O1 (stereo unspecified)	inactive: -15.1%
c1ccc(-c2cccc(N3CC[C@@]4(CCCNC4)C3)c2)cc1	inactive: 11%
COc1ccccc1-c1ccnc(-n2ncc(C(=O)N3CCN(C4CCCC4)CC3)c2-c2ccco2)n1	inactive: 17.3%
CC(C)NC(=O)N1CC2(CCN(S(=O)(=O)c3ccccc3)CC2)C1	inactive: 13.6%
O=C(c1cccc(F)c1)N1CCC[C@@]2(CCN(c3ccncc3)C2)C1	inactive: -1.54%
COC(=O)C1C(=O)C(C(=O)/C=C/c2ccco2)C(=O)CC1(C)C (stereo unspecified)	inactive: 11.4%
CC(=O)[C@@]1(O)CC[C@H]2[C@@H]3C=C(Cl)C4=CC(=O)CC[C@]4(C)[C@H]3CC[C@@]21C	inactive: -14.8%
N[C@H](Cc1ccc(O)cc1)C(=O)O	inactive: 12%
Cc1cnc(C)c(-c2ccc(O)c(CN3CCN(C=O)CC3)c2)n1	inactive: 9.76%
CN1CCN(c2nc(-c3cccc(NS(C)(=O)=O)c3)nc3ccccc23)CC1	inactive: 9.6%
COc1cc2c(cc1OC)C1Cc3ccc(OC)c(OC)c3CN1CC2 (stereo unspecified)	inactive: 10.8%
CCOC(=O)C1=C(COCCN)NC(C)=C(C(=O)OC)C1c1ccccc1Cl (stereo unspecified)	inactive
CC(=O)N1CCCC1C(=O)O (stereo unspecified)	inactive: -10.4%
Oc1ccc(/C=C/c2cc(O)cc(O)c2)cc1	inactive
C=C1C([C@@]2(C)C(OC(C)=O)CC(=O)O[C@@](C)(COC(C)=O)C2CC(=O)OC)C(OC=O)C(OC(=O)C(O)C(C)CC)[C@]2(C)C(c3ccoc3)CC(=O)C12O (stereo partly specified)	inactive: -7.31%
COc1ccccc1C1CN(CC(=O)N2CCC(N3CCOCC3)CC2)Cc2ccccc2O1 (stereo unspecified)	inactive: 33.1%
